This is one part of the list. The full chains were built here from the parent and the listed change. Inactive controls read about 0.05.
B1: TEV protease; numbered along this chain (parent)
chain: MGESLFKGPRDYNPISSSICHLTNESDGHTTSLYGIGFGPFIITNKHLFRRNNGTLVVQSLHGVFKVKDTTTLQQHLVDGRDMIIIRMPKDFPPFPQKLKFREPQREERICLVTTNFQTKSMSSMVSDTSCTFPSGDGIFWKHWIQTKDGQCGSPLVSTRDGFIVGIHSASNFTNTNNYFTSVPKNFMELLTNQEAQQWVSGWRLNADSVLWGGHKVFMVKPEEPFQPVKEATQL

Variants of: B1
Experiment: raw area under fraction-flipped curve 0-4 h after induction (AUC4h, not background-subtracted), DNA-recorder readout of cleavage of the substrate (dimensionless); higher = more cleavage of the substrate by the protease variant
Details: temperature: 34 °C; time window: 0-4 h after rhamnose induction
Description: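 In vivo DNA recorder in E. coli TOP10(DE3) ΔrhaA at 34 °C. Each TEVp single-site mutant (parent TEVp 0) is paired with a single-site variant of the 7-mer TEVs (canonical ENLYFQ|S). The substrate sits between flexible linkers in a Bxb1-sfGFP-TEVs-SsrA fusion, so cleavage stabilises Bxb1 and speeds flipping of a recombination array, read by NGS. The value is the raw area under the fraction-flipped curve over 0-4 h after rhamnose induction (AUC4h), with ≥20 reads per time point. It is not background-subtracted; inactive controls average about 0.047.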
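Also: Bxb1 expression induced with 0.2% (w/v) L-rhamnose at OD600 near 0.5, cultures sampled hourly, flipped fraction per protease–substrate barcode pair counted by paired-end Illumina sequencing.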

| Variant | area with substrate ENLYAQS | area with substrate ENLYDQS | area with substrate ENLYEQS | area with substrate ENLYGQS | area with substrate ENLYHQS | area with substrate ENLYIQS | area with substrate ENLYKQS | area with substrate ENLYMQS | area with substrate ENLYNQS | area with substrate ENLYPQS | area with substrate ENLYRQS | area with substrate ENLYTQS | area with substrate ENLYVQS | area with substrate ENLYWQS | area with substrate ENLYQQS | area with substrate ENLYSQS | area with substrate ENLYYQS | area with substrate ENLYCQS | area with substrate ENLYLQS |
| --- | --- | --- | --- | --- | --- | --- | --- | --- | --- | --- | --- | --- | --- | --- | --- | --- | --- | --- | --- |
| MGESLFKGPRDYNPISSSICHLTNESDGHTTSLYGIGFGPFIITNKHLCRRNNGTLVVQSLHGVFKVKDTTTLQQHLVDGRDMIIIRMPKDFPPFPQKLKFREPQREERICLVTTNFQTKSMSSMVSDTSCTFPSGDGIFWKHWIQTKDGQCGSPLVSTRDGFIVGIHSASNFTNTNNYFTSVPKNFMELLTNQEAQQWVSGWRLNADSVLWGGHKVFMVKPEEPFQPVKEATQL [F49C] | 0.0687 | 0.0663 | 0.0511 | 0.0657 | 0.055 | 0.0641 | 0.0605 | 0.0434 | 0.0435 | 0.0456 | 0.0457 | 0.0579 | 0.0716 |  |  |  |  |  |  |
| MGESLFKGPRDYNPISSSIGHLTNESDGHTTSLYGIGFGPFIITNKHLFRRNNGTLVVQSLHGVFKVKDTTTLQQHLVDGRDMIIIRMPKDFPPFPQKLKFREPQREERICLVTTNFQTKSMSSMVSDTSCTFPSGDGIFWKHWIQTKDGQCGSPLVSTRDGFIVGIHSASNFTNTNNYFTSVPKNFMELLTNQEAQQWVSGWRLNADSVLWGGHKVFMVKPEEPFQPVKEATQL [C20G] | 0.0512 |  |  |  |  |  |  |  |  |  |  |  |  | 0.0474 |  |  |  |  |  |
| MGESLFKGPRDYNPISSSICHLTNESDGHTTSLYGIEFGPFIITNKHLFRRNNGTLVVQSLHGVFKVKDTTTLQQHLVDGRDMIIIRMPKDFPPFPQKLKFREPQREERICLVTTNFQTKSMSSMVSDTSCTFPSGDGIFWKHWIQTKDGQCGSPLVSTRDGFIVGIHSASNFTNTNNYFTSVPKNFMELLTNQEAQQWVSGWRLNADSVLWGGHKVFMVKPEEPFQPVKEATQL [G37E] | 0.052 | 0.0481 | 0.0484 |  | 0.0377 | 0.0525 | 0.066 | 0.0583 | 0.0421 | 0.0516 | 0.05 | 0.0548 | 0.0809 | 0.0454 | 0.0576 | 0.0481 | 0.0428 |  |  |
| MGESLFKGPRDYNPISSSICHLTNESDGHTTSLYGIKFGPFIITNKHLFRRNNGTLVVQSLHGVFKVKDTTTLQQHLVDGRDMIIIRMPKDFPPFPQKLKFREPQREERICLVTTNFQTKSMSSMVSDTSCTFPSGDGIFWKHWIQTKDGQCGSPLVSTRDGFIVGIHSASNFTNTNNYFTSVPKNFMELLTNQEAQQWVSGWRLNADSVLWGGHKVFMVKPEEPFQPVKEATQL [G37K] | 0.0579 | 0.064 |  | 0.0484 | 0.0474 | 0.0527 | 0.0448 | 0.0537 | 0.051 |  | 0.0498 |  |  | 0.0552 | 0.0626 | 0.0464 | 0.05 | 0.0533 |  |
| MGESLFKGPRDYNPISSSICHLTNESDGHTTSLYGIGFGPFIITNKHLFRRNNGTLVVQSLHGVFKVKDTTTLQQHLVDGRDMIIIRMPKDFPPFPQKLKFREPQREERICLVTTNFQTKSMSSMVSDTSCTFPSGDGIFWKHWIQTKDGQCGSPLVSTRDGFIVGIHSASNSTNTNNYFTSVPKNFMELLTNQEAQQWVSGWRLNADSVLWGGHKVFMVKPEEPFQPVKEATQL [F173S] | 0.019 | 0.0624 | 0.0615 |  | 0.0605 |  | 0.0623 | 0.0534 | 0.0664 | 0.0511 | 0.0482 | 0.0587 | 0.11 |  | 0.0596 | 0.073 |  | 0.0773 |  |
| MGESLFKGPRDYNPISSSICHLTNESDGHTTSLYGIGFGPFIITAKHLFRRNNGTLVVQSLHGVFKVKDTTTLQQHLVDGRDMIIIRMPKDFPPFPQKLKFREPQREERICLVTTNFQTKSMSSMVSDTSCTFPSGDGIFWKHWIQTKDGQCGSPLVSTRDGFIVGIHSASNFTNTNNYFTSVPKNFMELLTNQEAQQWVSGWRLNADSVLWGGHKVFMVKPEEPFQPVKEATQL [N45A] | 0.0669 | 0.0647 | 0.0637 | 0.0615 | 0.0618 | 0.0848 | 0.0586 | 0.0556 | 0.063 | 0.054 | 0.0626 | 0.0793 | 0.0844 | 0.0589 | 0.0633 |  | 0.0663 | 0.0794 | 0.0727 |
| MGESLFKGPRDYNPISSSICHLTNESDGHTTSLYGIGFGPFIITNKHLFRRNRGTLVVQSLHGVFKVKDTTTLQQHLVDGRDMIIIRMPKDFPPFPQKLKFREPQREERICLVTTNFQTKSMSSMVSDTSCTFPSGDGIFWKHWIQTKDGQCGSPLVSTRDGFIVGIHSASNFTNTNNYFTSVPKNFMELLTNQEAQQWVSGWRLNADSVLWGGHKVFMVKPEEPFQPVKEATQL [N53R] | 0.0761 | 0.0587 | 0.0613 |  | 0.06 | 0.114 | 0.0598 | 0.0786 | 0.0645 | 0.0662 | 0.0318 |  | 0.0804 | 0.0724 |  | 0.0724 |  |  |  |
| MGESLFKGPRDYNPISRSICHLTNESDGHTTSLYGIGFGPFIITNKHLFRRNNGTLVVQSLHGVFKVKDTTTLQQHLVDGRDMIIIRMPKDFPPFPQKLKFREPQREERICLVTTNFQTKSMSSMVSDTSCTFPSGDGIFWKHWIQTKDGQCGSPLVSTRDGFIVGIHSASNFTNTNNYFTSVPKNFMELLTNQEAQQWVSGWRLNADSVLWGGHKVFMVKPEEPFQPVKEATQL [S17R] | 0.0569 | 0.0624 | 0.0583 | 0.0671 | 0.0618 | 0.178 | 0.0551 | 0.0897 | 0.0722 | 0.0749 |  | 0.0905 | 0.138 | 0.0862 |  | 0.0768 | 0.0638 |  |  |
| MGESLFKGPRDYNPISSSICHLTNESDGHTTSLYGIGFGPFIITNKHLFRRNNGTLVVQSLHGVFKVKDTTTLQQHLVDGRDMIIIRMPKDFPPFPQKLKFREPQREERICLVTWNFQTKSMSSMVSDTSCTFPSGDGIFWKHWIQTKDGQCGSPLVSTRDGFIVGIHSASNFTNTNNYFTSVPKNFMELLTNQEAQQWVSGWRLNADSVLWGGHKVFMVKPEEPFQPVKEATQL [T115W] | 0.0911 | 0.0518 | 0.101 | 0.0557 | 0.0731 | 0.127 | 0.0569 | 0.0775 | 0.0728 | 0.0766 | 0.062 | 0.105 | 0.0973 | 0.0851 | 0.0711 | 0.0632 |  | 0.0975 | 0.0817 |
